# Results from the supplement of paper PMC9588766.
# Structures can show the parent of a compound that is named as a salt. ± gives the standard deviation of the averaged measurements. Over roughly 2,000 compounds, “cell viability relative to DMSO control (compound alone)” has its median near 0.98; the lowest 2% begin near 0.23. The list shows a part of the results.
# Tested on: PDC-DUC18828
# Test: cell viability relative to DMSO control (compound alone) (fraction); PDC-DUC18828 is a patient-derived cholangiocarcinoma cell line; higher = less growth inhibition
# Details: 1 µM; 72 h
# Method: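 Selleck Bioactive library screen in the patient-derived FGFR2-G3BP2 fusion-positive ICC cell line PDC-DUC18828 (500 cells/well). Each compound was tested at 1 uM alone, in triplicate, for 72 h. Viability was read by CellTiter-Glo and normalised to plate DMSO controls.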
row,SMILES,cell viability
1,Cc1nc(Nc2n[nH]c3c2CN(C(=O)N[C@H](CN(C)C)c2ccccc2)C3(C)C)c2sccc2n1,0.532 ± 0.012
2,CNC[C@H](O)c1cccc(O)c1 [Phenylephrine HCl],0.954 ± 0.058
3,N[C@@H]1CN(c2c(F)cc3c(=O)c(C(=O)O)cn([C@@H]4C[C@@H]4F)c3c2Cl)CC12CC2 [Sitafloxacin Hydrate],1.08 ± 0.014
4,Cc1cc(N2CCOCC2)ccc1Nc1nc(NC2CCCCC2)c2[nH]cnc2n1,0.745 ± 0.03
5,C[C@H](NC(=O)Cc1cc(F)cc(F)c1)C(=O)N[C@@H]1C(=O)N(C)c2ccccc2-c2ccccc21,0.969 ± 0.031
6,O=C(O)c1ccc(Nc2ncc3c(n2)-c2ccc(Cl)cc2C(c2c(F)cccc2F)=NC3)cc1,0.482 ± 0.031
7,OCc1ccc(-c2ccc(-c3ccc(CO)s3)o2)s1,0.963 ± 0.038
8,O=c1c(-c2ccc(O)cc2)coc2cc(O)cc(O)c12 [Genistein],0.997 ± 0.029
9,CSc1cccc(Nc2ncc3cc(-c4c(Cl)cccc4Cl)c(=O)n(C)c3n2)c1,0.966 ± 0.069
10,C=CCc1ccc(O)c(-c2ccc(O)c(CC=C)c2)c1 [Honokiol],0.985 ± 0.017
11,CNC(=C[N+](=O)[O-])NCCSCc1ccc(CN(C)C)o1 [Ranitidine],1.04 ± 0.024
12,COc1cc2c(cc1OC)-c1cc3ccc(OC)c(OC)c3c[n+]1CC2 [Palmatine chloride],0.918 ± 0.074
13,COC(=O)[C@H]1[C@H]2C[C@@H]3c4[nH]c5cc(OC)ccc5c4CCN3C[C@H]2C[C@@H](OC(=O)c2cc(OC)c(OC)c(OC)c2)[C@@H]1OC [Reserpine],1.07 ± 0.085
14,Cc1nc(C)c(Cl)c(O)c1Cl [Clopidol],1.1 ± 0.057
15,CCN(CC)CCCC(C)Nc1c2ccc(Cl)cc2nc2ccc(OC)cc12 (configuration not stated) [Quinacrine 2HCl],1.01 ± 0.025
16,O=C(O)P(=O)(O)O [Foscarnet Sodium],1.04 ± 0.023
17,CC(C)(C)NS(=O)(=O)c1cncc(-c2cc(F)c3nc(N)nn3c2)c1,0.924 ± 0.01
18,CNc1ncc2cc(-c3cc(NC(=O)NCCC(C)(C)C)c(F)cc3C)c(C)nc2n1,0.634 ± 0.03
19,COc1cc(C=O)ccc1O [Vanillin],0.884 ± 0.035
20,C1=N/C2=N/c3ccc(OCCN4CCCC4)c(c3)COC/C=C/COCc3cccc(c3)C(=C1)N2 [Pacritinib (SB1518)],0.881 ± 0.055
21,CN(C)C(=O)c1ccc(S(=O)(=O)c2ccc(NC(=O)[C@@](C)(O)C(F)(F)F)c(Cl)c2)cc1,0.943 ± 0.07
22,C#C[C@]1(O)CC[C@H]2[C@@H]3CCc4cc(OC)ccc4[C@H]3CC[C@@]21C [Mestranol],1.08 ± 0.03
23,CC(C)NCC(O)c1ccc(NS(C)(=O)=O)cc1 (configuration not stated) [Sotalol],1.03 ± 0.044
24,CC(=O)N1CCN(c2ccc(OCC3COC(Cn4ccnc4)(c4ccc(Cl)cc4Cl)O3)cc2)CC1 (configuration not stated) [Ketoconazole],0.96 ± 0.039
25,CN(CCOc1ccc(NS(C)(=O)=O)cc1)CCc1ccc(NS(C)(=O)=O)cc1 [Dofetilide],1.03 ± 0.05
26,"Cc1[nH]c(/C=C2\C(=O)Nc3ccccc32)c(C)c1CCC(=O)O [TSU-68 (SU6668, Orantinib)]",0.972 ± 0.04

row,SMILES,cell viability
1,CO[C@H]1C[C@@H]2CC[C@@H](C)[C@@](O)(O2)C(=O)C(=O)N2CCCC[C@H]2C(=O)O[C@H]([C@H](C)C[C@@H]2CC[C@@H](O)[C@H](OC)C2)CC(=O)[C@H](C)/C=C(\C)[C@@H](O)[C@@H](OC)C(=O)[C@H](C)C[C@H](C)/C=C/C=C/C=C/1C [Rapamycin (Sirolimus)],0.636 ± 0.01
2,N[C@@H]1CCCN(c2c(/C=C3\SC(=O)NC3=O)cccc2-c2ccccc2)C1,0.901 ± 0.096
3,COc1cc2ncnc(Nc3ccc(Cl)cc3F)c2cc1OC,0.9 ± 0.042
4,N#Cc1ccc2[nH]c(O)c(-c3ccc(CN4CCOCC4)cn3)c2c1,1.14 ± 0.082
5,Oc1ccc(Nc2nc(-c3ccc(Cl)cc3)cs2)cc1,0.947 ± 0.053
6,O=C(CCCCCCNC(=O)c1cnc(N(c2ccccc2)c2ccccc2)nc1)NO [Rocilinostat (ACY-1215)],0.939 ± 0.049
7,O=c1ncccn1[C@@H]1O[C@H](CO)[C@@H](O)[C@H]1O [Zebularine],0.981 ± 0.025
8,NC(CO)(CO)CO [Trometamol],1.08 ± 0.032
9,Clc1ccc(C(Cn2ccnc2)OCc2c(Cl)cccc2Cl)c(Cl)c1 (configuration not stated) [Isoconazole nitrate],0.929 ± 0.086
10,CNc1nc(Nc2cnn([C@H]3CCN(C4COC4)C[C@@H]3F)c2Cl)ncc1C(F)(F)F,0.942 ± 0.072
11,NC(=O)N1c2ccccc2C=Cc2ccccc21 [Carbamazepine],0.883 ± 0.029
12,CC(C)n1nc(-c2cc3cc(O)ccc3[nH]2)c2c(N)ncnc21,0.347 ± 0.013
13,O=c1cc(-c2ccc(O)cc2)oc2cc(O)cc(O)c12 [Apigenin],1.02 ± 0.083
14,CO[C@H]1/C=C/O[C@@]2(C)Oc3c(C)c(O)c4c(c3C2=O)C2=NC3(CCN(CC(C)C)CC3)NC2=C(NC(=O)/C(C)=C\C=C\[C@H](C)[C@H](O)[C@@H](C)[C@@H](O)[C@@H](C)[C@H](OC(C)=O)[C@@H]1C)C4=O [Rifabutin],0.932 ± 0.034
15,C[C@@H](N)[C@H]1CC[C@H](C(=O)Nc2ccncc2)CC1,1.11 ± 0.05
16,COc1ccc(-c2cc(=O)c3c(O)cc(O)cc3o2)cc1O [Diosmetin],0.967 ± 0.04
17,CN1CC[C@H](c2c(O)cc(O)c3c(=O)cc(-c4ccccc4Cl)oc23)[C@H](O)C1 [Flavopiridol HCl],0.271 ± 0.024
18,CN1CC[C@H](c2c(O)cc(O)c3c(=O)cc(-c4ccccc4Cl)oc23)[C@H](O)C1 [Flavopiridol (Alvocidib)],0.257 ± 0.024
19,Nc1nc(Cl)nc2c1ncn2[C@@H]1O[C@H](CO)[C@@H](O)[C@@H]1F [Clofarabine],0.23 ± 0.0086
20,O=C1CN2Cc3c(ccc(Cl)c3Cl)N=C2N1 [Anagrelide HCl],0.97 ± 0.051
21,CN(C)Cc1c(C(=O)NCCOc2ccc(C(=O)NO)cc2)oc2ccccc12,0.927 ± 0.016
22,O=c1[nH]c(=O)n(C2CC(O)C(CO)O2)cc1Br (configuration not stated) [Bromodeoxyuridine (BrdU)],1 ± 0.035
23,CC[C@H]1OC(=O)[C@H](C)[C@@H](O[C@H]2C[C@@](C)(OC)[C@@H](O)[C@H](C)O2)[C@H](C)[C@@H](O[C@@H]2O[C@H](C)C[C@H](N(C)C)[C@H]2O)[C@](C)(O)C[C@@H](C)/C(=N\OCOCCOC)[C@H](C)[C@@H](O)[C@]1(C)O [Roxithromycin],0.975 ± 0.043
24,CC(=O)N1c2ccc(-c3ccc(C(=O)O)cc3)cc2[C@H](Nc2ccc(Cl)cc2)C[C@@H]1C,0.588 ± 0.041
25,Nc1nc(F)nc2c1ncn2[C@@H]1O[C@H](CO)[C@@H](O)[C@@H]1O [Fludarabine],1.02 ± 0.059
26,O=C(NCCS(=O)(=O)c1ccc(C(F)(F)F)cn1)c1ccc(Cl)cc1,1.02 ± 0.049

row,SMILES,cell viability
1,CC(C)CC(=O)Nc1n[nH]c2c1CN(C(=O)C1CCN(C)CC1)C2(C)C,0.909 ± 0.042
2,CCOC(=O)[C@H](CCc1ccccc1)N[C@H]1CCc2ccccc2N(CC(=O)O)C1=O [Benazepril HCl],1.07 ± 0.061
3,Cn1cc(-c2ccc(F)c(C(F)(F)F)c2)nc1C1CCN(c2ncnc3[nH]ncc23)CC1,0.957 ± 0.046
4,O=C(Nc1c[nH]nc1-c1nc2ccc(CN3CCOCC3)cc2[nH]1)NC1CC1,0.532 ± 0.03
5,COC1=C(OC)C(=O)C(CCCCCCCCCCO)=C(C)C1=O [Idebenone],1.06 ± 0.017
6,COc1cc(OC)c2c(=O)[nH]c(-c3cc(C)c(OCCO)c(C)c3)nc2c1,0.972 ± 0.032
7,O=C(c1cccc(Cl)c1F)N1CCN(Cc2cccc(Nc3nccs3)n2)CC1,0.364 ± 0.032
8,CC(C)[C@H]1C(=O)N[C@@H](CCCNC(=N)N)C(=O)NCC(=O)N[C@@H](CC(=O)O)C(=O)N[C@H](Cc2ccccc2)C(=O)N1C [Cilengitide],0.97 ± 0.022
9,O=C(Nc1cccc2c(=O)cc(-c3nnn[nH]3)oc12)c1ccc(OCCCCc2ccccc2)cc1 [Pranlukast],0.924 ± 0.049
10,Cc1ccc(C(=O)Nc2ccc(CN3CCN(C)CC3)c(C(F)(F)F)c2)cc1C#Cc1cnc2cccnn12,0.258 ± 0.013
11,CC(C)(C)NC[C@H](O)COc1nsnc1N1CCOCC1 [Timolol Maleate],0.984 ± 0.025
12,N#Cc1ccc(-c2c(-c3ncn[nH]3)sc(N3CCOCC3)c2C#N)c(F)c1,0.71 ± 0.023
13,C=C1c2cccc(O)c2C(=O)C2=C(O)[C@]3(O)C(=O)C(C(N)=O)=C(O)[C@@H](N(C)C)[C@@H]3[C@@H](O)[C@H]12 [Methacycline HCl],1.05 ± 0.061
14,Cn1c(=O)cc(N2CCC[C@@H](N)C2)n(Cc2cc(F)ccc2C#N)c1=O [Trelagliptin],0.927 ± 0.031
15,O=C(Nc1ccc(OC(F)(F)F)cc1)c1sccc1NCc1ccnc2ccccc12,0.948 ± 0.027
16,COc1cc(/C=C/C(=O)N2CCN(CC(=O)N3CCCC3)CC2)cc(OC)c1OC [Cinepazide maleate],0.96 ± 0.066
17,CCCNC(C)C(=O)Nc1ccccc1C (configuration not stated) [Prilocaine],0.961 ± 0.042
18,CC(COc1ccccc1)N(CCCl)Cc1ccccc1 (configuration not stated) [Phenoxybenzamine HCl],0.938 ± 0.02
19,Nc1ncn([C@@H]2O[C@H](CO)[C@@H](O)[C@H]2O)c(=O)n1 [Azacitidine],0.976 ± 0.031
20,CC(=O)Nc1cccc2c1c(Sc1ccc(Cl)cc1)c(C)n2CC(=O)O,1.07 ± 0.036
21,Cc1c(-c2ccnn2C)cc(C(=O)NCc2ccc(S(C)(=O)=O)cn2)c(=O)n1-c1cccc(C(F)(F)F)c1 [Alvelestat (AZD9668)],1.03 ± 0.025
22,O=C(NC1CCN(CCCCC2(C(=O)NCC(F)(F)F)c3ccccc3-c3ccccc32)CC1)c1ccccc1-c1ccc(C(F)(F)F)cc1 [Lomitapide Mesylate],0.915 ± 0.069
23,COc1ccc(C(=O)CC2(O)C(=O)Nc3c(Cl)ccc(Cl)c32)cc1 (configuration not stated),0.775 ± 0.029
24,CC(C)(C)Cn1c(N)nc2ccc(-c3[nH]c(C(C)(C)C)nc3-c3ccc(F)cc3)nc21,0.936 ± 0.039
25,CCCN[C@H]1CCc2nc(N)sc2C1 [Pramipexole],0.975 ± 0.022
